Results on 40 molecules are retold here after the supplement of paper PMC8821664.

Each structure is given as a SMILES string. Structures can show the parent of a compound that is named as a salt. This is one part of the list. Repeats are few or missing, and single values can be far off.
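Further: monoclonal Beas-2B line stably carrying CMV promoter-driven AQP5-HiBiT, 5,000 cells per well in 384-well plates, lytic HiBiT plus LgBiT NanoLuc luminescence, FDA-approved drug library screen.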

For this assay, the system named is Beas-2B AQP5-HiBiT reporter cells. In words: AQP5-HiBiT luminescence relative to vehicle (ratio to vehicle); higher = higher AQP5-HiBiT protein abundance. The following applies: 10 µM; 18 h. On the technique in general: The HiBiT peptide binds its large partner to form an active luciferase.
For the molecule `CC(=O)OCC(CCn1cnc2cnc(N)nc21)COC(C)=O` [Famciclovir], the AQP5-HiBiT luminescence was 0.845.
Regarding `NC(=O)c1ncn([C@@H]2O[C@H](CO)[C@@H](O)[C@H]2O)n1` [Ribavirin], the AQP5-HiBiT luminescence was determined as 1.14.
The figure for `O=C(O)COCCN1CCN([C@H](c2ccccc2)c2ccc(Cl)cc2)CC1` [Levocetirizine] is 0.814; for `CC[C@H](C)C(=O)O[C@H]1C[C@@H](C)C=C2C=C[C@H](C)[C@H](CC[C@@H]3C[C@@H](O)CC(=O)O3)[C@H]21` [Lovastatin] it is 0.969; for `N=C(NCCCCCCNC(=N)NC(=N)Nc1ccc(Cl)cc1)NC(=N)Nc1ccc(Cl)cc1` [Chlorhexidine] it is 0.406.
The value for `O=C(O)c1ccc(-n2nc(-c3ccccc3O)nc2-c2ccccc2O)cc1` [Deferasirox] was 0.815; that for `CCCC(=O)OCOC(=O)C1=C(C)NC(C)=C(C(=O)OC)C1c1cccc(Cl)c1Cl` (stereo not given) [Clevidipine butyrate] was 0.775; that for `CCCC1O[C@@H]2C[C@H]3[C@@H]4CCC5=CC(=O)C=C[C@]5(C)[C@H]4[C@@H](O)C[C@]3(C)[C@]2(C(=O)CO)O1` (stereo not given in full) [Budesonide] was 0.644.
On to `C[C@]12CC[C@H](O)CC1=CC[C@@H]1[C@@H]2CC[C@]2(C)C(c3cccnc3)=CC[C@@H]12` [Abiraterone], for which the AQP5-HiBiT luminescence turned out to be 0.627.
The figure for `C/C=C1\NC(=O)[C@H]2CSSCC/C=C/[C@H](CC(=O)N[C@H](C(C)C)C(=O)N2)OC(=O)[C@H](C(C)C)NC1=O` [Romidepsin (FK228, Depsipeptide)] is 0.577; for `COc1ccc(C(=O)c2ccccc2)c(O)c1` [Oxybenzone] it is 1.13.
For `CCOC(=O)N1CCC(=C2c3ccc(Cl)cc3CCc3cccnc32)CC1` [Loratadine], the AQP5-HiBiT luminescence amounted to 1.03.
Take `CC(C)(O/N=C(\C(=O)N[C@@H]1C(=O)N2C(C(=O)[O-])=C(C[n+]3ccccc3)CS[C@H]12)c1csc(N)n1)C(=O)O` [Ceftazidime]: the AQP5-HiBiT luminescence amounted to 0.706.
Turning to `CCc1c(C)[nH]c2c1C(=O)C(CN1CCOCC1)CC2` (stereo not given) [Molindone hydrochloride], the AQP5-HiBiT luminescence is 0.71.
The figure for `COc1c(N2C[C@@H]3CCCN[C@@H]3C2)c(F)cc2c(=O)c(C(=O)O)cn(C3CC3)c12` [Moxifloxacin hydrochloride] is 0.747; for `C[C@H](Cn1cnc2c(N)ncnc21)OCP(=O)(O)O` [Tenofovir] it is 0.808.
With `CC(=O)O[C@H]1C(=O)[C@@]2(C)[C@H]([C@H](OC(=O)c3ccccc3)[C@]3(O)C[C@H](OC(=O)[C@H](O)[C@@H](NC(=O)c4ccccc4)c4ccccc4)C(C)=C1C3(C)C)[C@]1(OC(C)=O)CO[C@@H]1C[C@@H]2O` [Paclitaxel], the AQP5-HiBiT luminescence worked out at 2.1.
Turning to `CC(C)c1ccc2oc3nc(N)c(C(=O)O)cc3c(=O)c2c1` [Amlexanox], the AQP5-HiBiT luminescence came to 1.
The figure for `O=C1c2ccccc2C(=O)C1c1ccccc1` [Phenylindione] is 0.939.
As to `NNC(=O)c1ccncc1` [Isoniazid], the AQP5-HiBiT luminescence came to 0.809.
In the case of `CCC(=O)O[C@]1(C(=O)CCl)[C@@H](C)C[C@H]2[C@@H]3CCC4=CC(=O)C=C[C@]4(C)[C@@]3(F)[C@@H](O)C[C@@]21C` [Clobetasol propionate], the AQP5-HiBiT luminescence came to 0.697.
`Cc1c(-c2ccc(O)cc2)n(Cc2ccc(OCCN3CCCCCC3)cc2)c2ccc(O)cc12` [Bazedoxifene acetate]: the AQP5-HiBiT luminescence was found to be 1.5.
Take `CN1CCCC(n2nc(Cc3ccc(Cl)cc3)c3ccccc3c2=O)CC1` (stereo not given) [Azelastine]: the AQP5-HiBiT luminescence stood at 1.37.
On to `NCCc1ccc(O)c(O)c1` [Dopamine hydrochloride], for which the AQP5-HiBiT luminescence was found to be 0.484.
Turning to `CCCCc1oc2ccc(NS(C)(=O)=O)cc2c1C(=O)c1ccc(OCCCN(CCCC)CCCC)cc1` [Dronedarone hydrochloride], the AQP5-HiBiT luminescence is 2.56.
`CCCSc1nc(N[C@@H]2C[C@H]2c2ccc(F)c(F)c2)c2nnn([C@@H]3C[C@H](OCCO)[C@@H](O)[C@H]3O)c2n1` [Ticagrelor]: the AQP5-HiBiT luminescence came to 0.99.
In the case of `NC(N)=Nc1nc(CSCC/C(N)=N/S(N)(=O)=O)cs1` [Famotidine], the AQP5-HiBiT luminescence came to 1.16.
As for `CCn1cc(C(=O)O)c(=O)c2ccc(C)nc21` [Nalidixic acid], the AQP5-HiBiT luminescence is 0.831.
Take `COc1ccc2[nH]c([S@@+]([O-])Cc3ncc(C)c(OC)c3C)nc2c1` [Esomeprazole Sodium]: the AQP5-HiBiT luminescence was determined as 0.935.
With `COc1cccc2c1C(=O)c1c(O)c3c(c(O)c1C2=O)C[C@@](O)(C(C)=O)C[C@@H]3O[C@H]1C[C@H](N)[C@H](O)[C@H](C)O1` [Daunorubicin hydrochloride], the AQP5-HiBiT luminescence stood at 1.22.
As for `O=c1[nH]cc(F)c(=O)[nH]1` [Fluorouracil (5-Fluoracil, 5-FU)], the AQP5-HiBiT luminescence stood at 0.716.
In the case of `COc1cc(CNC(=O)CCCC/C=C/C(C)C)ccc1O` [Capsaicin], the AQP5-HiBiT luminescence turned out to be 1.12.
With `CCOC(=O)C(C)(C)Oc1ccc(Cl)cc1` [Clofibrate], the AQP5-HiBiT luminescence came out at 0.775.
With `CCS(=O)(=O)CCn1c([N+](=O)[O-])cnc1C` [Tinidazole], the AQP5-HiBiT luminescence amounted to 0.793.
On to `O=C1C(CC[S+]([O-])c2ccccc2)C(=O)N(c2ccccc2)N1c1ccccc1` (stereo not given) [Sulfinpyrazone], for which the AQP5-HiBiT luminescence is 0.743.
For the molecule `CNCCCC12CCC(c3ccccc31)c1ccccc12` [Maprotiline hydrochloride], the AQP5-HiBiT luminescence amounted to 1.34.
In the case of `CC[C@@H]1/C=C(\C)C[C@H](C)C[C@H](OC)[C@H]2O[C@@](O)(C(=O)C(=O)N3CCCC[C@H]3C(=O)O[C@H](/C(C)=C/[C@@H]3CC[C@H](Cl)[C@H](OC)C3)[C@H](C)[C@@H](O)CC1=O)[C@H](C)C[C@@H]2OC` [Pimecrolimus], the AQP5-HiBiT luminescence was found to be 0.609.
`Cc1c(-c2ccccc2)oc2c(C(=O)OCCN3CCCCC3)cccc2c1=O` [Flavoxate hydrochloride]: the AQP5-HiBiT luminescence came to 1.24.
The value for `C#C[C@]1(O)CC[C@H]2[C@@H]3CCC4=Cc5oncc5C[C@]4(C)[C@H]3CC[C@@]21C` [Danazol] was 0.717.
As to `c1ccc2c(CC3=NCCN3)cccc2c1` [Naphazoline hydrochloride], the AQP5-HiBiT luminescence amounted to 1.27.
